This note sets out measurements from the supplement of paper PMC10126150.

Sequences with one replicate were seen in a single cluster, so their values are uncertain.
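Note: ATP exposure 15 min at 22 °C before imaging.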

This series deals with ATP. Kind of series: switch fluorescence ratio, 500 uM ATP over buffer (Cy3 cluster intensity, sum of 5 cycles each) (fold (ratio)); higher = stronger signal-on switching upon ATP binding; sequences stand for … in TCGTCGGCAGCGTCAGATGTGTATAAGAGACAGTTTTTTTTTTTTTTTTTTTTTTTTT…TC. As to conditions: aptamer strand: ATP DNA aptamer (quencher-CACCTGGGGGAGTATTGCGGAGGAAGG + anchor), 100 nM annealed; ATP concentration: 500 uM; one replicate. The method in brief: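 Imaging in selection buffer was followed by imaging after 15 min with 500 uM ATP at 22 °C, for Cy3-labelled switching-strand clusters annealed to 100 nM quencher-labelled ATP aptamer on a modified Illumina MiSeq flow-cell. Five of these buffer/ATP cycles ran, separated by NaOH stripping and re-annealing. The fluorescence ratio per cluster is summed target-cycle over summed buffer-cycle Cy3 intensity, averaged per switch-domain sequence; clusters outside 100-1000 RFU were removed.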
Regarding CTCACAGGCC, the switch fluorescence ratio worked out at 1.05. The same measure for GTTAAAGAAA: 0.984; for GCTGGTACAT: 1.01. The same measure for GGATGGGTGA: 0.953; for CTGCTGCGTA: 1.02; for CAGCCATAGC: 0.981.

Regarding AAGAGTCAAC, the switch fluorescence ratio came to 0.961. The same measure for TAACCGGACC: 1.75; for GTTCATTGAT: 0.992. Under AGGGATGA stands 1; under GATTCTCGGA, 1.01. Under CCACAGTACG stands 1.87; under GATGACAGCG, 0.999; under GGGACTGATT, 0.989. For the sequence CGTGAAGCTC, the switch fluorescence ratio was 1.07. The same measure for CAAAGCTTG: 1; for GCAGTTTGAA: 0.993.

In the case of AGCTCCCGGC, the switch fluorescence ratio came to 0.984. Under CGGGGCCCCA stands 1.04. Under TATTGGGGC stands 1.03; under CGTGCGACAA, 1.46; under CGGTCGTTCG, 1.03. The same measure for GACGTGTCTC: 1.01. Turning to AACGATACAG, the switch fluorescence ratio worked out at 1.19. Under TCAAACGGGT stands 1.02; under CATATTTGAG, 1.02; under AATCTGACTC, 1.27. With GTGGGCCCCG, the switch fluorescence ratio stood at 1.03. Under GAGTGTGCGA stands 0.963; under GCATGTACAC, 1.15; under AACCGGGGTC, 1.1. The same measure for GCCATAGCTC: 1.05.

As to TACTATGCCT, the switch fluorescence ratio is 1.01.

TGGTGTAGTG: the switch fluorescence ratio amounted to 1.01. Consider GCTGGGATGT, for which the switch fluorescence ratio amounted to 1. The same measure for TAGGAACACG: 1.02. Regarding AGTGCTTGGT, the switch fluorescence ratio was found to be 1.05. Under TCGTTCCC stands 1.04; under ATTAGGAGGG, 1.04. The same measure for TACGGGACGT: 0.968; for CAATCTTACA: 1.03. The same measure for ATGCTGCCCT: 1.03.

With CACGAGCGT, the switch fluorescence ratio amounted to 0.995. With GTGAATCTAA, the switch fluorescence ratio worked out at 0.984. With GAGCAAAACA, the switch fluorescence ratio was 1.06. Under CGGGAAGCTG stands 0.906; under GCCGAACAAA, 0.985. Take GTGTCCAGTA: the switch fluorescence ratio is 1.02.

TGCGTTTTCA: the switch fluorescence ratio stood at 0.997. For CAGTGGTTCT, the switch fluorescence ratio was determined as 0.993.

Take CATGGGCCCC: the switch fluorescence ratio was 0.956.

Take TCGCATATGT: the switch fluorescence ratio turned out to be 1.46. Under CGCTAAAATC stands 1.18. Take GATCTTGTGA: the switch fluorescence ratio was found to be 0.977.

Regarding AAAGCCTTTC, the switch fluorescence ratio is 1.42.

As for GGGAAGTGGT, the switch fluorescence ratio came out at 1.03. The same measure for GTAGGCTATG: 0.976. Turning to TTGTACAGCA, the switch fluorescence ratio was determined as 1.01. Under CGGTATCCCC stands 0.94; under GTCCAGCCAG, 1.03; under AACATTACGT, 1.36. In the case of CATGGTAGAA, the switch fluorescence ratio turned out to be 1.02.

On to GGGGGCTTTC, for which the switch fluorescence ratio is 1.

With CCGAATGGTT, the switch fluorescence ratio was determined as 0.982. Under TTCAGGAGTA stands 1.04; under TCGGGAGTAA, 1.44; under TATAGCGTGG, 1.01. Under GTGGGTGATG stands 0.989; under CAAATTAAAC, 1.06; under GGTAGTCT, 0.906. The same measure for GTGTCATGGT: 1; for ATCTTCAGAC: 1.06; for AGGAACGAT: 1.01.

On to GACTCGTCTG, for which the switch fluorescence ratio turned out to be 0.975. Turning to GGGATCGCTC, the switch fluorescence ratio was 1.03. On to TATTCAGTAC, for which the switch fluorescence ratio stood at 1.09. Under AGTCGTTGAC stands 0.999. The same measure for CAGGAGCGGT: 1.52.

In the case of GGACGGGTAC, the switch fluorescence ratio amounted to 1.46.
